{"source": "paper PMC4336329", "about": "(PLoS ONE, 2015)", "note": "The campaign covered roughly 310,000 compounds. About 2,200 (0.71%) showed an effect of 50% or more. Effects have a minus sign here. The list shows a part of the results."}
{"target": "human ether-à-go-go-related gene (hERG) potassium channel (human, UniProt Q12809)", "sequence (Q12809 whole entry, looked up)": "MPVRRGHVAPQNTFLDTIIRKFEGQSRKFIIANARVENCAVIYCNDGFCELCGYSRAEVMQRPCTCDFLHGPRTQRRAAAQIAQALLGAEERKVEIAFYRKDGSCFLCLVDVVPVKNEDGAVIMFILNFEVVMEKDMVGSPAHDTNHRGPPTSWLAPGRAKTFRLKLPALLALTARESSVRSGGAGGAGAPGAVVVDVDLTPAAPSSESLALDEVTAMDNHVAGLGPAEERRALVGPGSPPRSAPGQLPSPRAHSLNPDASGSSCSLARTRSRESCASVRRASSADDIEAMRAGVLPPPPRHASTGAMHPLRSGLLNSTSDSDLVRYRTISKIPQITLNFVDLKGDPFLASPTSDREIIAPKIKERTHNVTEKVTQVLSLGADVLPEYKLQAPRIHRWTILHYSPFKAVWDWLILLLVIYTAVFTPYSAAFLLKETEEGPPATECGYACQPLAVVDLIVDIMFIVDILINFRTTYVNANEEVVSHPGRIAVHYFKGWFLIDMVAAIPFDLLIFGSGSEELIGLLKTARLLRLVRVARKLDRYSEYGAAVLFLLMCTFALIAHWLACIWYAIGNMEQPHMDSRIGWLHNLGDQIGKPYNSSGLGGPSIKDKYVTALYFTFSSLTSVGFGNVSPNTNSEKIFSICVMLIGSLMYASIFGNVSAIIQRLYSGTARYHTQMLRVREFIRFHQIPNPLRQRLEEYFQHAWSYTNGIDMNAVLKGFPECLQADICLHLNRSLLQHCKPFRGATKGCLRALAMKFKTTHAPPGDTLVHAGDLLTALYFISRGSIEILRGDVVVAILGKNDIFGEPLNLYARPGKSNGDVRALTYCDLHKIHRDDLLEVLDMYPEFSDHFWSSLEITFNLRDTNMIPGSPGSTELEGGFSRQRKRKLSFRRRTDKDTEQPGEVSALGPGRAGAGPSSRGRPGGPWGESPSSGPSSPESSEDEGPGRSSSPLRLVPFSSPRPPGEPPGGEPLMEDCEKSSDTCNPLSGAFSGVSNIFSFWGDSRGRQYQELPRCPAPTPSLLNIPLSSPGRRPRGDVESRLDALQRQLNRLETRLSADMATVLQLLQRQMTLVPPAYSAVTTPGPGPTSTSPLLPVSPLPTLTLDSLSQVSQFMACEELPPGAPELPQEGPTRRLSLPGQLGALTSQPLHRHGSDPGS", "test": "primary screen, population patch clamp on CHO cells stably expressing hERG", "units": {"hERG current change (%, negative = inhibition) at 1uM": "%"}}
{"smiles": "CN(CC(=O)Nc1cccc(F)c1)CC(=O)Nc1cccc(S(=O)(=O)N2CCCCC2)c1", "hERG current change (%, negative = inhibition) at 1uM": 3.38}
{"smiles": "CCn1c(SC/C=C/c2ccccc2)nnc1-c1cnccn1", "hERG current change (%, negative = inhibition) at 1uM": 5.49}
{"smiles": "O=S(=O)(Nc1nc(-c2ccccc2)cs1)c1cccc(C(F)(F)F)c1", "hERG current change (%, negative = inhibition) at 1uM": 10.5}
{"smiles": "CCOC(=O)CSc1nc2ccc(NC(C)=O)cc2s1", "hERG current change (%, negative = inhibition) at 1uM": 2.18}
{"smiles": "CCCOc1cccc(OCC(=O)Nc2nc3ccccc3[nH]2)c1", "hERG current change (%, negative = inhibition) at 1uM": 13.9}
{"smiles": "COc1cc(C(=O)OCC(=O)N2CCN(C(C)=O)CC2)ccc1OCC(C)C", "hERG current change (%, negative = inhibition) at 1uM": 12.6}
{"smiles": "O=C(c1cc(COc2c(F)cccc2F)on1)N1CCCCCC1", "hERG current change (%, negative = inhibition) at 1uM": 7}
{"smiles": "CC(=O)Nc1ccc(NC(=O)C(C)Sc2nc3ccccc3c(=O)n2CC2CCCO2)cc1", "note": "(stereo not shown)", "hERG current change (%, negative = inhibition) at 1uM": 14.8}
{"smiles": "Cc1ccc(N2C(=O)NC(C(F)(F)F)(C(F)(F)F)C3=C2CC(C)(C)CC3=O)cc1", "hERG current change (%, negative = inhibition) at 1uM": 8.93}
{"smiles": "N#C/C(=C\\c1ccc(-c2ccc(Br)cc2)o1)C(=O)NCCc1c[nH]c2ccccc12", "hERG current change (%, negative = inhibition) at 1uM": 19.4}
{"smiles": "CC(C)=CC(=O)Nc1ccc(S(=O)(=O)Nc2ccccn2)cc1", "hERG current change (%, negative = inhibition) at 1uM": 0.672}
{"smiles": "O=C(CSc1nnnn1C1CCCCC1)N1CCCC1", "hERG current change (%, negative = inhibition) at 1uM": 6.03}
{"smiles": "COc1ccc(-n2nnc3c(=O)n(CC(=O)Nc4cc(C)on4)cnc32)cc1", "hERG current change (%, negative = inhibition) at 1uM": 16.2}
{"smiles": "CCOC(=O)/C(C#N)=C1/SC(CCO)C(=O)N1c1ccccc1", "note": "(stereo not shown)", "hERG current change (%, negative = inhibition) at 1uM": 18.1}
{"smiles": "CCc1ccccc1NC1=NCC(=O)N1Cc1ccc2c(c1)OCO2", "hERG current change (%, negative = inhibition) at 1uM": 10.1}
{"smiles": "Cl.Nc1ccc2c(c1)oc1ccccc12", "hERG current change (%, negative = inhibition) at 1uM": 20.1}
{"smiles": "O=C(CN(C1CCCCC1)S(=O)(=O)c1ccc(F)cc1)NCCCO", "hERG current change (%, negative = inhibition) at 1uM": 10.7}
{"smiles": "Nc1ccc(-c2cc(-c3ccc(N)cc3)nc(-c3ccccc3)n2)cc1", "hERG current change (%, negative = inhibition) at 1uM": 14.3}
{"smiles": "O=C(COC(=O)CCc1c[nH]c2ccccc12)Nc1ccccc1C(F)(F)F", "hERG current change (%, negative = inhibition) at 1uM": -4.25}
{"smiles": "CCOC(=O)N1CCN(C(=O)CSc2nnc3[nH]c(=O)c(C)c(C)n23)CC1", "hERG current change (%, negative = inhibition) at 1uM": 2.6}
{"smiles": "O=C(Cn1nnc(-c2ccccc2)n1)Nc1cccc(S(=O)(=O)N2CCOCC2)c1", "hERG current change (%, negative = inhibition) at 1uM": 1.08}
{"smiles": "CCOC(=O)c1ccc(NC(=O)CSc2nc3cccnc3n2C)cc1", "hERG current change (%, negative = inhibition) at 1uM": 12.3}
{"smiles": "CCOC(=O)C1CCN(C(=O)CCc2nc3sc4c(c3c(=O)[nH]2)CCCC4)CC1", "hERG current change (%, negative = inhibition) at 1uM": 4.72}
{"smiles": "C#CCN(Cc1ccco1)C(=O)c1ccc(OC2CCN(Cc3ccccn3)CC2)cc1", "hERG current change (%, negative = inhibition) at 1uM": -25.3}
{"smiles": "CC1CCN(CCCNC(=O)CN2CCN(Cc3ccc(Cl)cc3)C2=O)CC1", "hERG current change (%, negative = inhibition) at 1uM": -25.7}
{"smiles": "Cc1cc(-c2ccc(C)c(S(=O)(=O)NCCc3ccco3)c2)on1", "hERG current change (%, negative = inhibition) at 1uM": 12.2}
{"smiles": "COc1cc(C(=O)Nc2ccc3c(c2)OCCO3)ccc1-n1cnnn1", "hERG current change (%, negative = inhibition) at 1uM": 14.6}
{"smiles": "COc1ccc(CNC(=O)C/C(C)=N/NC(=O)c2ccc([N+](=O)[O-])cc2Cl)cc1", "hERG current change (%, negative = inhibition) at 1uM": 9.93}
{"smiles": "CCC1(C(=O)OC)NC(c2ccco2)C2C(=O)N(c3ccc(C)cc3)C(=O)C21", "note": "(stereo not shown)", "hERG current change (%, negative = inhibition) at 1uM": 12.7}
{"smiles": "O=C(O)CCNC(=O)/C(=C/C=C/c1ccccc1)NC(=O)c1ccccc1", "hERG current change (%, negative = inhibition) at 1uM": 9.54}
{"smiles": "C=CCc1cccc2ccc(=O)oc12", "hERG current change (%, negative = inhibition) at 1uM": 8.26}
{"smiles": "Cc1nc2ccc(NC(=O)c3cc([N+](=O)[O-])cc([N+](=O)[O-])c3Cl)cc2s1", "hERG current change (%, negative = inhibition) at 1uM": 7.05}
{"smiles": "COc1ccc(/C=N/NC(=O)c2cc(-c3cccc(C)c3)nc3ccccc23)cc1O", "hERG current change (%, negative = inhibition) at 1uM": 15.7}
{"smiles": "Cc1ccccc1NC(=O)Cc1nc(COC(=O)c2ccc(Cl)c(S(N)(=O)=O)c2)cs1", "hERG current change (%, negative = inhibition) at 1uM": -33.3}
{"smiles": "Cc1ccc(S(=O)(=O)c2nc(S(C)(=O)=O)sc2N2CC(C)OC(C)C2)cc1", "note": "(stereo not shown)", "hERG current change (%, negative = inhibition) at 1uM": 13.1}
{"smiles": "COC(=O)c1cc(C(=O)Cc2ccccc2)c[nH]1", "hERG current change (%, negative = inhibition) at 1uM": -0.651}
{"smiles": "CC1CCCCN1S(=O)(=O)Cc1ccccc1Cl", "note": "(stereo not shown)", "hERG current change (%, negative = inhibition) at 1uM": 13.2}
{"smiles": "N#CCSc1nnc(COc2ccccc2)n1-c1ccccc1", "hERG current change (%, negative = inhibition) at 1uM": -2.86}
{"smiles": "Cc1cc(CN2CCCC(C(=O)Nc3cccc(-n4cccn4)c3)C2)cc(C)c1O", "note": "(stereo not shown)", "hERG current change (%, negative = inhibition) at 1uM": 5.56}
{"smiles": "O=C(Nc1ccc(N2CCCCC2)cc1)c1ccccc1", "hERG current change (%, negative = inhibition) at 1uM": 14.9}
{"smiles": "Nc1nc(-c2cc(O)ccc2[N+](=O)[O-])cc(-c2ccccc2)c1[N+](=O)[O-]", "hERG current change (%, negative = inhibition) at 1uM": 5.18}
{"smiles": "O=C(COc1ncnc2cc([N+](=O)[O-])ccc12)N(CCc1ccccc1)Cc1ccccc1", "hERG current change (%, negative = inhibition) at 1uM": 18.9}
{"smiles": "CCOC(=O)c1sc(-c2ccccc2)cc1NC(=O)Nc1ccccc1", "hERG current change (%, negative = inhibition) at 1uM": 14.8}
